Source: PubChem BioAssay AID588591 (National Center for Advancing Translational Sciences (NCATS), 2011)
About 4,700 (1.2%) of roughly 390,000 compounds were called active. Inconclusive results, whose numbers are uncertain, are shown with a selection of clear calls. The call rests on the fitted dose curve; in most records, active means well fitted inhibition curve with a large enough effect; inconclusive means small, poorly fitted or top-dose-only effect, or another doubt; inactive means no such curve, though single readings can be large or run the other way. A potency beside an inconclusive call is a rough fit, not a confirmed value.

Molecular target: DNA polymerase eta (Homo sapiens) (UniProt Q9Y253)
Chain of UniProt Q9Y253 (Q9Y253 whole entry, looked up): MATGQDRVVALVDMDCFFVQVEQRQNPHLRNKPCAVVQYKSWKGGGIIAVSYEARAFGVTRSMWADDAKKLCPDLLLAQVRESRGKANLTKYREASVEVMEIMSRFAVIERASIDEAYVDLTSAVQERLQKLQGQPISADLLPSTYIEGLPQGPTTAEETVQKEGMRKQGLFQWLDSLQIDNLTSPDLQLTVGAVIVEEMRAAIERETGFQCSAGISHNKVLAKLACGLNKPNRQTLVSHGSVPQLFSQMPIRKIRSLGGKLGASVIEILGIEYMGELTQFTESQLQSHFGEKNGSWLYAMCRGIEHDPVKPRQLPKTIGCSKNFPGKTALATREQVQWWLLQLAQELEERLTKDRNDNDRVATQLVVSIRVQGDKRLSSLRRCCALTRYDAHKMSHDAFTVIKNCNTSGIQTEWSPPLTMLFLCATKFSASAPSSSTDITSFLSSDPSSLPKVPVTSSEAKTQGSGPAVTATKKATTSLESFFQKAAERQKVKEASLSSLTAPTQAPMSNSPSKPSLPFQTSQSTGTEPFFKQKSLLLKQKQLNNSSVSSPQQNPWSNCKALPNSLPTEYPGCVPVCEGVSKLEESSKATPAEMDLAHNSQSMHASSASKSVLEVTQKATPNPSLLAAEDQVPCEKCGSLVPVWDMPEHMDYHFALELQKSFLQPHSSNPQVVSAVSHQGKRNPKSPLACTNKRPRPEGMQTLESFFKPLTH
Experiment: qHTS for Inhibitors of Polymerase Eta
Conditions: recombinant Pol eta, fluorescent DNA replication assay; series mostly up to 114 µM
Procedure, shortened: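 Pol eta at 10 nM preincubated with compounds 15 min at room temperature; reaction started with fluorescent substrate (50 nM final) and read kinetically at 0 and 10 min.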
Potency means the concentration at half of the fitted maximal effect; tags describe the fitted curve by direction and shape.

Row | SMILES | Potency
1 | Cc1nnc(N/N=C\c2ccc(-c3ccccc3[N+](=O)[O-])o2)n1N | inactive
2 | CCn1cc(C(=O)NCCCN(CC(C)C)CC(C)C)c(=O)c2cc(S(=O)(=O)N(C)C3CCCCC3)ccc21 | inconclusive: 22.4 µM [inhibitor, full curve, poor fit]
3 | CC(=O)Oc1ccc2oc(-c3ccccc3)c(C(N)=O)c2c1 | inconclusive: 89.1 µM [inhibitor, partial curve, poor fit]
4 | COc1ccc(C(C)=O)cc1Cn1cnc2c(cnn2C)c1=O | inconclusive: 89.1 µM [inhibitor, partial curve, poor fit]
5 | Cc1cccn2c(=O)cc(COC(=O)C(C)Oc3ccccc3)nc12 (stereo not drawn) | inconclusive: 28.2 µM [inhibitor, partial curve]
6 | Cc1sc2nc(CSC(C)C(=O)Nc3ccccn3)[nH]c(=O)c2c1C (stereo not drawn) | active: 70.8 µM
7 | Cc1c(Cl)cccc1Nc1nn2c(=O)c3ccc(C(=O)NCCc4ccccc4)cc3nc2s1 | inconclusive: 100 µM [inhibitor, single point]
8 | CC(=O)NCC(=O)OCC(=O)c1ccc(C)c(C)c1 | inactive
9 | COc1ccc(Br)cc1/C=N/NC(=O)c1cccnc1 | inactive
10 | COc1ccc(C2CC(c3cccs3)=NN2C(=O)CSC2=NN3CCCC(=O)N=C3S2)cc1 (stereo not drawn) | inconclusive: 17.8 µM [inhibitor, full curve]
11 | N#C/C(=C\c1ccc(C(=O)O)cc1)S(=O)(=O)c1cc(Br)ccc1Br | inconclusive: 50.1 µM [inhibitor, partial curve]
12 | C[C@]12CC[C@H]3C(=CCc4cc(O)ccc43)[C@@H]1CCC2=O | inactive
13 | CC(C)c1ccc(CCNC(=O)c2cccc(S(=O)(=O)N3CCN(C)CC3)c2)cc1 | inactive
14 | COc1cc(CC(=O)O)c([N+](=O)[O-])cc1OC | inconclusive: 79.4 µM [inhibitor, partial curve, poor fit]
15 | C=CCOc1c(Br)cc(C2NC(=O)NC(C)=C2C(C)=O)cc1OCC (stereo not drawn) | inactive
16 | COc1ccc(-n2nc3c(c2NC(=O)CBr)CSC3)cc1 | inconclusive: 50.1 µM [inhibitor, partial curve, poor fit]
17 | COc1ccccc1NC(=O)CCNS(=O)(=O)c1ccc2[nH]c(=O)oc2c1 | active: 25.1 µM
18 | O=c1c(Cl)c(Cl)cnn1Cc1ccccc1Cl | inconclusive: 20 µM [inhibitor, partial curve, poor fit]
19 | O=C(O)/C=C/C(=O)Nc1ccc2c(c1)C(=O)c1ccccc1C2=O | inconclusive: 20 µM [inhibitor, full curve]
20 | Cc1ccc(Cn2c(=O)c3ccccc3n3c(SCC(=O)N4CCCCC4C)nnc23)cc1 (stereo not drawn) | inactive
21 | O=C1/C(=C\c2ccco2)SC(=S)N1C1CCS(=O)(=O)C1 (stereo not drawn) | inconclusive: 56.2 µM [inhibitor, partial curve, poor fit]
22 | Cc1csc(C(C#N)C(=O)c2ccncc2)n1 (stereo not drawn) | inconclusive: 15.8 µM [inhibitor, full curve, poor fit]
23 | CCOC(=O)/C(C#N)=C/c1c(OCC)n(CC)c2ccccc12 | inconclusive: 15.8 µM [inhibitor, partial curve, poor fit]

Row | SMILES | Potency
24 | COc1ccc(C2=CC3=C(Br)C(=O)C(C)(O)C(=O)C3=CO2)cc1 (stereo not drawn) | inconclusive: 79.4 µM [inhibitor, partial curve]
25 | CSc1ccc(CCNC(=O)CCc2c(C)nc3c(-c4ccccc4)c(C)nn3c2C)cc1 | inactive
26 | COc1cc(-n2c(=O)c3ccccc3n(CC(=O)c3ccc(F)cc3)c2=O)cc(OC)c1OC | inconclusive: 44.7 µM [inhibitor, partial curve, poor fit]
27 | CC(CCC(C)C(C)(C)C)[C@@H]1CC[C@H]2C3C[C@H](OS(O)(=S)=S)[C@H]4C[C@H](OS(O)(=S)=S)[C@@H](OS(O)(=S)=S)C[C@]4(C)[C@H]3CC[C@]12C (stereo partly drawn) (tested in a mixture with another compound) | active: 3.55 µM
28 | Cc1ccc(N2C(=O)[C@@H]3C(c4cccnc4)=NO[C@@H]3C2=O)c(C)c1 | inconclusive: 89.1 µM [inhibitor, partial curve, poor fit]
29 | Cc1nnc(NS(=O)(=O)c2ccc(N=Nc3ccc(N)nc3N)cc2)s1 | active: 20 µM
30 | CCOC(=O)c1c(C)[nH]c(C)c1S(=O)(=O)N1CCC(C(=O)Nc2ccc(F)cc2F)CC1 | inactive
31 | Cc1n[nH]c(C)c1Sc1ccccc1N=Cc1cc(Cl)cc([N+](=O)[O-])c1O | inactive
32 | Cc1c(C(N)=O)cc([N+](=O)[O-])cc1[N+](=O)[O-] | inactive
33 | COC(=O)c1ccccc1NC(=O)CSc1nc(-c2ccccc2)cc(C(F)(F)F)n1 | inactive
34 | COc1ccc(-c2ccc3oc(-c4ccc(OC)cc4)c(C#CCCO)c3c2)cc1 | active: 44.7 µM
35 | COc1c(C)cc(C(=O)C2CCCN(Cc3ccc(Oc4ncccn4)cc3)C2)cc1C (stereo not drawn) | inconclusive: 79.4 µM [inhibitor, partial curve, poor fit]
36 | CCN(CC)CCCNc1ccc2ncn3c4ccc(O)cc4c(=O)c1c23 | inconclusive: 28.2 µM [inhibitor, partial curve]
37 | O=C(CCCN1C(=O)/C(=C\c2ccccc2)SC1=S)Nc1cccc(C(=O)O)c1 | inactive
38 | COc1ccc(OC)c(NC(=O)CSc2nc(-c3ccccc3C)nc3cc(=O)[nH]n23)c1 | inactive
39 | CCc1ccc(NC(=O)COC(=O)c2cccs2)cc1 | inconclusive: 89.1 µM [inhibitor, partial curve]
40 | CS(=O)CCC(NS(=O)(=O)c1ccccc1)C(=O)O (stereo not drawn) | inconclusive: 39.8 µM [inhibitor, partial curve, poor fit]
41 | O=[N+]([O-])c1ccc(-c2nc(NCC3CCCO3)c3ccccc3n2)cc1 (stereo not drawn) | inconclusive: 50.1 µM [inhibitor, partial curve, poor fit]
42 | COc1ccc(Cn2ccnc2SCC(=O)Nc2ccc(C)cc2C)cc1 | inactive
43 | Cc1nnc2ccc(-c3cccc(NC(=O)Cc4cccs4)c3)nn12 | inconclusive: 17.8 µM [inhibitor, full curve]
44 | COc1ccc(CCn2c(O)cc3nn(-c4nc5ccccc5s4)c(=O)c-3c2C)cc1 | active: 50.1 µM
45 | Brc1ccc(C2=CC(c3cccs3)n3ncnc3N2)cc1 (stereo not drawn) | inconclusive: 31.6 µM [inhibitor, partial curve, poor fit]
46 | O=C(Nc1nc2n(n1)C(c1ccc(Cl)cc1)C=C(c1ccccc1)N2)c1ccco1 (stereo not drawn) | inconclusive: 89.1 µM [inhibitor, single point]

Row | SMILES | Potency
47 | O=C(/C=C/c1ccc(N2CCC(c3ccccc3)=N2)cc1)c1ccccc1 | inactive
48 | O=C(CSc1nc(-c2cccs2)nc2cc(=O)[nH]n12)Nc1cccc(C(F)(F)F)c1 | inactive
49 | CCc1ccc(OCC(O)CN2CCC(CN3C(=O)c4cccc5cccc(c45)C3=O)CC2)cc1 (stereo not drawn) | inactive
50 | COc1cc(/C=C/c2nc(-c3ccccc3O)n[nH]2)cc(OC)c1OC | inconclusive: 15.8 µM [inhibitor, full curve]
51 | CCn1c(SCc2nc3scc(-c4ccccc4)c3c(=O)[nH]2)nnc1-c1cccs1 | inconclusive: 22.4 µM [inhibitor, partial curve]
52 | COc1ccc(OC)c(NC(=O)CSc2ncc3c(n2)-c2ccccc2N(C)S3(=O)=O)c1 | inactive
53 | CN(C)S(=O)(=O)c1cccc(-c2nn(-c3ccccc3)cc2/C=C2\SC(=S)N(CC(=O)O)C2=O)c1 | active: 35.5 µM
54 | Cc1snc2sc(C(=O)c3ccc(Br)cc3)c(N)c12 | inconclusive: 12.6 µM [inhibitor, partial curve]
55 | CCOc1ccc(CCN2C(=O)c3ccc(C(=O)O)cc3C2=O)cc1OCC | inactive
56 | O=C(N/N=C\C=C\c1ccco1)c1cncc(Br)c1 | inconclusive: 50.1 µM [inhibitor, partial curve, poor fit]
57 | NC(=O)Cc1ccc(OCc2nn[nH]n2)cc1 | inconclusive: 20 µM [inhibitor, partial curve, poor fit]
58 | O=C(CSc1nnc(NC(=O)C2CCCCC2)s1)NCc1ccco1 | inactive
59 | COc1cccc(OC)c1OCCOc1ccccc1OC(C)C | inconclusive: 79.4 µM [inhibitor, partial curve, poor fit]
60 | CCOc1ccccc1/C=C(\C(=O)O)c1ccc(S(=O)(=O)N2CCCCC2)s1 | inconclusive: 31.6 µM [inhibitor, full curve]
61 | CCOc1ccccc1/C=N/NC(=O)c1cccc(S(=O)(=O)N(CC)CC)c1 | inactive
62 | CCc1ccc(NC(=O)C2CCC(CNS(=O)(=O)c3ccc4c(c3)C(C)(C)C(=O)N4C)CC2)cc1 (stereo not drawn) | inconclusive: 89.1 µM [inhibitor, single point]
63 | COc1cccc(NC(=O)c2sc3nc(C)c(C(=O)Nc4ccc(Cl)cc4)c(-c4ccc(Br)cc4)c3c2N)c1 | inactive
64 | Cc1ccc(C)c(NC(=O)CSc2sc3c(O)cc(=O)[nH]c3c2C#N)c1 | active: 20 µM
65 | CCOC(=O)c1c(NC(=O)C(Sc2ccccc2)c2ccccc2)sc(C(N)=O)c1C (stereo not drawn) | inconclusive: 50.1 µM [inhibitor, partial curve, poor fit]
66 | O=C(Cc1ccc([N+](=O)[O-])cc1)Nc1cc(C(F)(F)F)cc(C(F)(F)F)c1 | inconclusive: 89.1 µM [inhibitor, partial curve, poor fit]
67 | NN1C(=O)c2cccc3c(C(=O)O)ccc(c23)C1=O | inconclusive: 35.5 µM [inhibitor, partial curve, poor fit]
68 | CCN(CC)CCOc1ccc(Br)cc1 | inactive
